The record followed here is publication PMC11393453, “Phosphorylation of tau at a single residue inhibits binding to the E3 ubiquitin ligase, CHIP” (Nature Communications, 2024).

The target of this test is CHIP (C-terminus of Hsc70 interacting protein; STUB1), recombinant human, full-length (human) (UniProt Q9UNE7).
Sequence of UniProt Q9UNE7 (Q9UNE7 whole entry): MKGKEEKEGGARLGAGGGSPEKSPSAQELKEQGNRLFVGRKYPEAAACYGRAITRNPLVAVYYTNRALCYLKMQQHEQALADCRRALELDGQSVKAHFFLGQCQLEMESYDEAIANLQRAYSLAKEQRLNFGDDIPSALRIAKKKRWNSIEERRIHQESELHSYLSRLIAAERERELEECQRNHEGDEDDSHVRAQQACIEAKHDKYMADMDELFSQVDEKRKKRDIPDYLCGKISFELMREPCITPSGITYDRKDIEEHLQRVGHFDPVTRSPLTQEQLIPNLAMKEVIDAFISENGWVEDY

Turning to “full length p.tau, produced in Sf9 cells (a stretch of the chain, no sequence given) (natural protein; phosphorylated in Sf9 cells; sites not printed; other documents disagree on this pair)”, the equilibrium dissociation constant (Kd) turned out to be 500 nM.
